In the supplement of paper PMC8728848:
Some of the results follow.

What was measured:
Test in all cases: glycan array binding signal (z-score within array); higher = stronger binding
Conditions in all cases: glycan notation: IUPAC condensed, linker removed
[1] = biological target: Neu5Ac(a2-3)Gal(b1-4)GlcNAc(b1-6)GalNAc
How it was run: (§1)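 From the Consortium for Functional Glycomics database, 3228 arrays were curated, keeping only those whose protein sequence was available. Binding is given as a within-array Z-score averaged across arrays sharing a protein sequence and across linkers. Negative Z-scores can be read as non-binding.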

[2] = biological target: Neu5Ac(a2-3)Gal(b1-4)GlcNAc(b1-6)[Gal(b1-3)]GalNAc
How it was run: as §1

[3] = biological target: Neu5Ac(a2-3)Gal(b1-4)GlcNAc(b1-6)[Neu5Ac(a2-3)Gal(b1-3)]GalNAc
How it was run: as §1

[4] = biological target: Neu5Ac(a2-3)Gal(b1-4)GlcNAc6S
How it was run: as §1

[5] = biological target: Neu5Ac(a2-3)Gal(b1-4)[Fuc(a1-3)]GlcNAc
How it was run: as §1

[6] = biological target: Neu5Ac(a2-3)Gal(b1-4)[Fuc(a1-3)]GlcNAc(b1-2)Man
How it was run: as §1

[7] = biological target: Neu5Ac(a2-3)Gal(b1-4)[Fuc(a1-3)]GlcNAc(b1-3)Gal
How it was run: as §1

[8] = biological target: Neu5Ac(a2-3)Gal(b1-4)[Fuc(a1-3)]GlcNAc(b1-3)Gal(b1-4)GlcNAc
How it was run: as §1

[9] = biological target: Neu5Ac(a2-3)Gal(b1-4)[Fuc(a1-3)]GlcNAc(b1-3)Gal(b1-4)[Fuc(a1-3)]GlcNAc(b1-3)Gal(b1-4)[Fuc(a1-3)]GlcNAc
How it was run: as §1

[10] = biological target: Neu5Ac(a2-3)Gal(b1-4)[Fuc(a1-3)]GlcNAc(b1-3)GalNAc
How it was run: as §1

[11] = biological target: Neu5Ac(a2-3)Gal(b1-4)[Fuc(a1-3)]GlcNAc(b1-6)[Gal(b1-3)]GalNAc
How it was run: as §1

[12] = biological target: Neu5Ac(a2-3)Gal(b1-4)[Fuc(a1-3)]GlcNAc(b1-6)[Neu5Ac(a2-3)Gal(b1-3)]GalNAc
How it was run: as §1

[13] = biological target: Neu5Ac(a2-3)Gal(b1-4)[Fuc(a1-3)]GlcNAc6S
How it was run: as §1

[14] = biological target: Neu5Ac(a2-3)Gal6S(b1-4)GlcNAc
How it was run: as §1

[15] = biological target: Neu5Ac(a2-3)Gal6S(b1-4)[Fuc(a1-3)]GlcNAc
How it was run: as §1

Neu5Ac(a2-3)GalNAc = biological target: Neu5Ac(a2-3)GalNAc
How it was run: as §1

[16] = biological target: Neu5Ac(a2-3)GalNAc(b1-4)GlcNAc
How it was run: as §1

[17] = biological target: Neu5Ac(a2-3)[GalNAc(b1-4)]Gal(b1-4)Glc
How it was run: as §1

[18] = biological target: Neu5Ac(a2-3)[GalNAc(b1-4)]Gal(b1-4)GlcNAc
How it was run: as §1

[19] = biological target: Neu5Ac(a2-3)[GalNAc(b1-4)]Gal(b1-4)GlcNAc(b1-3)GalNAc
How it was run: as §1

[20] = biological target: Neu5Ac(a2-3)[Neu5Ac(a2-6)]GalNAc
How it was run: as §1

Neu5Ac(a2-6)Gal = biological target: Neu5Ac(a2-6)Gal
How it was run: as §1

[21] = biological target: Neu5Ac(a2-6)Gal(b1-3)GlcNAc(b1-3)[Gal(b1-4)GlcNAc(b1-6)]Gal(b1-4)Glc
How it was run: as §1

Neu5Ac(a2-6)Gal(b1-4)Glc = biological target: Neu5Ac(a2-6)Gal(b1-4)Glc
How it was run: as §1

[22] = biological target: Neu5Ac(a2-6)Gal(b1-4)GlcNAc
How it was run: as §1

[23] = biological target: Neu5Ac(a2-6)Gal(b1-4)GlcNAc(b1-2)Man
How it was run: as §1

[24] = biological target: Neu5Ac(a2-6)Gal(b1-4)GlcNAc(b1-2)Man(a1-3)Man(b1-4)GlcNAc(b1-4)GlcNAc
How it was run: as §1

[25] = biological target: Neu5Ac(a2-6)Gal(b1-4)GlcNAc(b1-2)Man(a1-3)[Gal(b1-4)GlcNAc(b1-2)Man(a1-6)]Man(b1-4)GlcNAc(b1-4)GlcNAc
How it was run: as §1

[26] = biological target: Neu5Ac(a2-6)Gal(b1-4)GlcNAc(b1-2)Man(a1-3)[GlcNAc(b1-2)Man(a1-6)]Man(b1-4)GlcNAc(b1-4)GlcNAc
How it was run: as §1

[27] = biological target: Neu5Ac(a2-6)Gal(b1-4)GlcNAc(b1-2)Man(a1-3)[GlcNAc(b1-4)][Neu5Ac(a2-6)Gal(b1-4)GlcNAc(b1-2)Man(a1-6)]Man(b1-4)GlcNAc(b1-4)GlcNAc
How it was run: as §1

[28] = biological target: Neu5Ac(a2-6)Gal(b1-4)GlcNAc(b1-2)Man(a1-3)[Man(a1-6)]Man(b1-4)GlcNAc(b1-4)GlcNAc
How it was run: as §1

[29] = biological target: Neu5Ac(a2-6)Gal(b1-4)GlcNAc(b1-2)Man(a1-3)[Neu5Ac(a2-3)Gal(b1-4)GlcNAc(b1-2)Man(a1-6)]Man(b1-4)GlcNAc(b1-4)GlcNAc
How it was run: as §1

[30] = biological target: Neu5Ac(a2-6)Gal(b1-4)GlcNAc(b1-2)Man(a1-3)[Neu5Ac(a2-6)Gal(b1-4)GlcNAc(b1-2)Man(a1-6)]Man(b1-4)GlcNAc(b1-4)GlcNAc
How it was run: as §1

[31] = biological target: Neu5Ac(a2-6)Gal(b1-4)GlcNAc(b1-2)Man(a1-3)[Neu5Ac(a2-6)Gal(b1-4)GlcNAc(b1-2)Man(a1-6)]Man(b1-4)GlcNAc(b1-4)[Fuc(a1-6)]GlcNAc
How it was run: as §1

[32] = biological target: Neu5Ac(a2-6)Gal(b1-4)GlcNAc(b1-2)Man(a1-6)Man(b1-4)GlcNAc(b1-4)GlcNAc
How it was run: as §1

[33] = biological target: Neu5Ac(a2-6)Gal(b1-4)GlcNAc(b1-2)Man(a1-6)[Gal(b1-4)GlcNAc(b1-2)Man(a1-3)]Man(b1-4)GlcNAc(b1-4)GlcNAc
How it was run: as §1

[34] = biological target: Neu5Ac(a2-6)Gal(b1-4)GlcNAc(b1-2)Man(a1-6)[GlcNAc(b1-2)Man(a1-3)]Man(b1-4)GlcNAc(b1-4)GlcNAc
How it was run: as §1

[35] = biological target: Neu5Ac(a2-6)Gal(b1-4)GlcNAc(b1-2)Man(a1-6)[Man(a1-3)]Man(b1-4)GlcNAc(b1-4)GlcNAc
How it was run: as §1

[36] = biological target: Neu5Ac(a2-6)Gal(b1-4)GlcNAc(b1-2)[Neu5Ac(a2-6)Gal(b1-4)GlcNAc(b1-4)]Man(a1-3)[GlcNAc(b1-4)][Neu5Ac(a2-6)Gal(b1-4)GlcNAc(b1-2)[Neu5Ac(a2-6)Gal(b1-4)GlcNAc(b1-6)]Man(a1-6)]Man(b1-4)GlcNAc(b1-4)GlcNAc
How it was run: as §1

[37] = biological target: Neu5Ac(a2-6)Gal(b1-4)GlcNAc(b1-2)[Neu5Ac(a2-6)Gal(b1-4)GlcNAc(b1-4)]Man(a1-3)[GlcNAc(b1-4)][Neu5Ac(a2-6)Gal(b1-4)GlcNAc(b1-4)Man(a1-6)]Man(b1-4)GlcNAc(b1-4)GlcNAc
How it was run: as §1

[38] = biological target: Neu5Ac(a2-6)Gal(b1-4)GlcNAc(b1-2)[Neu5Ac(a2-6)Gal(b1-4)GlcNAc(b1-6)]Man(a1-6)[Neu5Ac(a2-6)Gal(b1-4)GlcNAc(b1-2)Man(a1-3)][GlcNAc(b1-4)]Man(b1-4)GlcNAc(b1-4)GlcNAc
How it was run: as §1

[39] = biological target: Neu5Ac(a2-6)Gal(b1-4)GlcNAc(b1-3)Gal(b1-3)GlcNAc
How it was run: as §1

[40] = biological target: Neu5Ac(a2-6)Gal(b1-4)GlcNAc(b1-3)Gal(b1-4)GlcNAc
How it was run: as §1

[41] = biological target: Neu5Ac(a2-6)Gal(b1-4)GlcNAc(b1-3)Gal(b1-4)GlcNAc(b1-2)Man(a1-3)[Neu5Ac(a2-6)Gal(b1-4)GlcNAc(b1-3)Gal(b1-4)GlcNAc(b1-2)Man(a1-6)]GalNAc
How it was run: as §1

[42] = biological target: Neu5Ac(a2-6)Gal(b1-4)GlcNAc(b1-3)Gal(b1-4)GlcNAc(b1-3)Gal(b1-4)GlcNAc
How it was run: as §1

B1: CLECb-Precomplexed (Mus musculus), P43025 (protein)
chain: MAKNGLVLCILVVSLLLDQTDGYPSRMKARKHSKRRVKAKDDDLKSQVEKLWREVNALKEMQALQTVCLRGTKVHKKCYLASEGLKHYHEANEDCISKGGTLVVPRNSDEINALRDYGKRSLPGVNDFWLGINDMVTEGKFLDVHGFAVSFLNWDRAQPSGGKRENCVLFSQSAQGKWSDEACRSSKRYICEFIIPTRTRPLEQKLISEEDLAANDILDYKDDDDKV
What does the source list for B1?
glycan array binding signal (z-score) [1]: -0.192; glycan array binding signal (z-score) [2]: 0.699; glycan array binding signal (z-score) [3]: -0.564; glycan array binding signal (z-score) [4]: -0.559; glycan array binding signal (z-score) [5]: -0.551; glycan array binding signal (z-score) [6]: -0.357; glycan array binding signal (z-score) [7]: 1.1; glycan array binding signal (z-score) [8]: 0.396; glycan array binding signal (z-score) [9]: -0.141; glycan array binding signal (z-score) [10]: 0.48; glycan array binding signal (z-score) [11]: 0.178; glycan array binding signal (z-score) [12]: 1.07; glycan array binding signal (z-score) [13]: -0.203; glycan array binding signal (z-score) [14]: -0.618; glycan array binding signal (z-score) [15]: -0.005; glycan array binding signal (z-score) (Neu5Ac(a2-3)GalNAc): 0.032; glycan array binding signal (z-score) [16]: -0.698; glycan array binding signal (z-score) [17]: 0.078; glycan array binding signal (z-score) [18]: -0.321; glycan array binding signal (z-score) [19]: 0.271; glycan array binding signal (z-score) [20]: 0.176; glycan array binding signal (z-score) (Neu5Ac(a2-6)Gal): -0.301; glycan array binding signal (z-score) [21]: 0.55; glycan array binding signal (z-score) (Neu5Ac(a2-6)Gal(b1-4)Glc): -0.213; glycan array binding signal (z-score) [22]: -0.18; glycan array binding signal (z-score) [23]: -0.647; glycan array binding signal (z-score) [24]: 0.007; glycan array binding signal (z-score) [25]: -0.117; glycan array binding signal (z-score) [26]: 0.046; glycan array binding signal (z-score) [27]: 0.199; glycan array binding signal (z-score) [28]: -0.151; glycan array binding signal (z-score) [29]: -0.03; glycan array binding signal (z-score) [30]: -0.388; glycan array binding signal (z-score) [31]: 2.94; glycan array binding signal (z-score) [32]: -0.084; glycan array binding signal (z-score) [33]: 0.123; glycan array binding signal (z-score) [34]: -0.639; glycan array binding signal (z-score) [35]: -0.366; glycan array binding signal (z-score) [36]: -0.528; glycan array binding signal (z-score) [37]: -0.266; glycan array binding signal (z-score) [38]: -0.389; glycan array binding signal (z-score) [39]: -0.423; glycan array binding signal (z-score) [40]: -0.301; glycan array binding signal (z-score) [41]: -0.31; glycan array binding signal (z-score) [42]: 0.109
